31 sequences from article PMC12820563, “FoxP3 forms a head-to-head dimer in vivo and stabilizes its multimerization on adjacent microsatellites” can be followed below.

This is one part of the list.

The assay has as its target T1, MBP-FoxP1dN (Mus musculus, UniProt P58462 326-579).
T1 sequence: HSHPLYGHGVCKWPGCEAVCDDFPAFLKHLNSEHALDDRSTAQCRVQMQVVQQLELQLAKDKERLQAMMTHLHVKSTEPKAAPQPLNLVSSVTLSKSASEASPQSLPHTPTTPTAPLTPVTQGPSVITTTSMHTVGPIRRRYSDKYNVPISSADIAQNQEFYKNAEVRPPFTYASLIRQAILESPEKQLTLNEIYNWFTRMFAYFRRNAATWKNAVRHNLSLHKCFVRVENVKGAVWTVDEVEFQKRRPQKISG
The assay is described as follows: PD-seq (MBP pull-down with sequencing); 20 mM Tris-HCl pH 7.5, 100 mM NaCl, 1.5 mM MgCl2, 0.4 uM protein, 0.1 uM dsDNA library, 30 min, room temperature, amylose pull-down; high values mean tight binding. Particulars: protein: recombinant; tags: His6-MBP; chain copies: 2; dsDNA, one strand shown. In short, it runs like this: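 E. coli-expressed mouse FoxP3 or FoxP1 fragment, N-terminus removed and tagged with His6-MBP, was used at 0.4 µM against 0.1 µM of a Klenow-filled degenerate double-stranded DNA library. After 30 min at room temperature in Tris pH 7.5 buffer with NaCl and MgCl2, complexes were pulled down on amylose resin and washed three times. Binding is pull-down over input reads-per-million enrichment from pooled replicates of the proteinase K-released, PCR-barcoded, Illumina-sequenced DNA.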
In the case of “GATGATTGTTCTCCCAGCTGATGAATTAGCTGTTTCGAGTAAACAAATTTTCCTAATCTTTCTGTTCAAGCGCCATCTAC”, the binding signal was 1.12 RPM ratio (pull-down/input). In the case of “GATGATTGTTCTCCCAGCTGATGAATTTAGAAAGTCGAGTAAACAAATTTTCCTAATCTTTCTGTTCAAGCGCCATCTAC” it was 1.04 RPM ratio (pull-down/input); in that of “GATGATTGTTCTCCCAGCTGATGAATTGACGTCGTCGAGTAAACAAATTTTCCTAATCTTTCTGTTCAAGCGCCATCTAC”, 1.06 RPM ratio (pull-down/input); in that of “GATGATTGTTCTCCCAGCTGATGAATTTCGTCGATCGAGTAAACAAATTTTCCTAATCTTTCTGTTCAAGCGCCATCTAC”, 0.9 RPM ratio (pull-down/input).

Regarding “GATGATTGTTCTCCCAGCTGATGAATTAGCACGTTCGAGTAAACAAATTTTCCTAATCTTTCTGTTCAAGCGCCATCTAC”, the binding signal is 0.933 RPM ratio (pull-down/input). In the case of “GATGATTGTTCTCCCAGCTGATGAATTCATCAAATCGAGTAAACAAATTTTCCTAATCTTTCTGTTCAAGCGCCATCTAC” it was 1.04 RPM ratio (pull-down/input). As to “GATGATTGTTCTCCCAGCTGATGAATTCTCGACTTCGAGTAAACAAATTTTCCTAATCTTTCTGTTCAAGCGCCATCTAC”, the binding signal was 0.861 RPM ratio (pull-down/input). In the case of “GATGATTGTTCTCCCAGCTGATGAATTCCATTCTTCGAGTAAACAAATTTTCCTAATCTTTCTGTTCAAGCGCCATCTAC” it was 0.848 RPM ratio (pull-down/input); in that of “GATGATTGTTCTCCCAGCTGATGAATTGTACTTCTCGAGTAAACAAATTTTCCTAATCTTTCTGTTCAAGCGCCATCTAC”, 0.894 RPM ratio (pull-down/input); in that of “GATGATTGTTCTCCCAGCTGATGAATTCAACGCATCGAGTAAACAAATTTTCCTAATCTTTCTGTTCAAGCGCCATCTAC”, 1.16 RPM ratio (pull-down/input).

For the sequence “GATGATTGTTCTCCCAGCTGATGAATTCGAGCCCTCGAGTAAACAAATTTTCCTAATCTTTCTGTTCAAGCGCCATCTAC”, the binding signal was 0.714 RPM ratio (pull-down/input). As to “GATGATTGTTCTCCCAGCTGATGAATTTCCGATCTCGAGTAAACAAATTTTCCTAATCTTTCTGTTCAAGCGCCATCTAC”, the binding signal is 0.802 RPM ratio (pull-down/input). In the case of “GATGATTGTTCTCCCAGCTGATGAATTGTCTATCTCGAGTAAACAAATTTTCCTAATCTTTCTGTTCAAGCGCCATCTAC” it was 1.04 RPM ratio (pull-down/input). In the case of “GATGATTGTTCTCCCAGCTGATGAATTTCTCCCTTCGAGTAAACAAATTTTCCTAATCTTTCTGTTCAAGCGCCATCTAC” it was 0.948 RPM ratio (pull-down/input); in that of “GATGATTGTTCTCCCAGCTGATGAATTGAATTGCTCGAGTAAACAAATTTTCCTAATCTTTCTGTTCAAGCGCCATCTAC”, 0.902 RPM ratio (pull-down/input). For the sequence “GATGATTGTTCTCCCAGCTGATGAATTGGTGAGTTCGAGTAAACAAATTTTCCTAATCTTTCTGTTCAAGCGCCATCTAC”, the binding signal was 0.982 RPM ratio (pull-down/input). As to “GATGATTGTTCTCCCAGCTGATGAATTGCCGCGATCGAGTAAACAAATTTTCCTAATCTTTCTGTTCAAGCGCCATCTAC”, the binding signal is 0.925 RPM ratio (pull-down/input). In the case of “GATGATTGTTCTCCCAGCTGATGAATTGTATTTTTCGAGTAAACAAATTTTCCTAATCTTTCTGTTCAAGCGCCATCTAC” it was 1.8 RPM ratio (pull-down/input); in that of “GATGATTGTTCTCCCAGCTGATGAATTGGCGGACTCGAGTAAACAAATTTTCCTAATCTTTCTGTTCAAGCGCCATCTAC”, 0.832 RPM ratio (pull-down/input). In the case of “GATGATTGTTCTCCCAGCTGATGAATTCCGAAGATCGAGTAAACAAATTTTCCTAATCTTTCTGTTCAAGCGCCATCTAC” it was 0.759 RPM ratio (pull-down/input); in that of “GATGATTGTTCTCCCAGCTGATGAATTAGCTAGTTCGAGTAAACAAATTTTCCTAATCTTTCTGTTCAAGCGCCATCTAC”, 0.968 RPM ratio (pull-down/input).

For “GATGATTGTTCTCCCAGCTGATGAATTAACGGTATCGAGTAAACAAATTTTCCTAATCTTTCTGTTCAAGCGCCATCTAC”, the binding signal is 1 RPM ratio (pull-down/input). For “GATGATTGTTCTCCCAGCTGATGAATTCGAATGGTCGAGTAAACAAATTTTCCTAATCTTTCTGTTCAAGCGCCATCTAC”, the binding signal was 0.785 RPM ratio (pull-down/input). In the case of “GATGATTGTTCTCCCAGCTGATGAATTGGCGCACTCGAGTAAACAAATTTTCCTAATCTTTCTGTTCAAGCGCCATCTAC” it was 0.912 RPM ratio (pull-down/input); in that of “GATGATTGTTCTCCCAGCTGATGAATTAGCCAGCTCGAGTAAACAAATTTTCCTAATCTTTCTGTTCAAGCGCCATCTAC”, 0.673 RPM ratio (pull-down/input); in that of “GATGATTGTTCTCCCAGCTGATGAATTCTAGAACTCGAGTAAACAAATTTTCCTAATCTTTCTGTTCAAGCGCCATCTAC”, 0.811 RPM ratio (pull-down/input). In the case of “GATGATTGTTCTCCCAGCTGATGAATTAATCTACTCGAGTAAACAAATTTTCCTAATCTTTCTGTTCAAGCGCCATCTAC” it was 0.882 RPM ratio (pull-down/input); in that of “GATGATTGTTCTCCCAGCTGATGAATTCGTTCCTTCGAGTAAACAAATTTTCCTAATCTTTCTGTTCAAGCGCCATCTAC”, 0.857 RPM ratio (pull-down/input). In the case of “GATGATTGTTCTCCCAGCTGATGAATTTCTTAAATCGAGTAAACAAATTTTCCTAATCTTTCTGTTCAAGCGCCATCTAC” it was 1.06 RPM ratio (pull-down/input); in that of “GATGATTGTTCTCCCAGCTGATGAATTCGAAGCGTCGAGTAAACAAATTTTCCTAATCTTTCTGTTCAAGCGCCATCTAC”, 0.857 RPM ratio (pull-down/input); in that of “GATGATTGTTCTCCCAGCTGATGAATTATACCGGTCGAGTAAACAAATTTTCCTAATCTTTCTGTTCAAGCGCCATCTAC”, 0.929 RPM ratio (pull-down/input).
